Data published in the supplement of paper PMC8728848.
The list shows a part of the results.

Legend:
Experiment in all cases: glycan array binding signal (z-score within array); higher = stronger binding
Conditions in all cases: glycan notation: IUPAC condensed, linker removed
[1] = target: Gal(b1-4)GlcNAc(b1-3)Gal(b1-3)GlcNAc
Outline: (§1)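 Negative Z-scores can be read as non-binding. The Z-score is calculated within each array and then averaged across arrays of one protein sequence at different concentrations or buffers and across linkers. Arrays, 3228 in all, were curated from the Consortium for Functional Glycomics database and kept only where the protein sequence was available.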

[2] = target: Gal(b1-4)GlcNAc(b1-3)Gal(b1-4)Glc
Outline: as §1

[3] = target: Gal(b1-4)GlcNAc(b1-3)Gal(b1-4)GlcNAc
Outline: as §1

[4] = target: Gal(b1-4)GlcNAc(b1-3)Gal(b1-4)GlcNAc(b1-2)Man(a1-3)[Gal(b1-4)GlcNAc(b1-3)Gal(b1-4)GlcNAc(b1-2)Man(a1-6)]Man(b1-4)GlcNAc(b1-4)GlcNAc
Outline: as §1

[5] = target: Gal(b1-4)GlcNAc(b1-3)Gal(b1-4)GlcNAc(b1-2)Man(a1-3)[Gal(b1-4)GlcNAc(b1-3)Gal(b1-4)GlcNAc(b1-2)Man(a1-6)]Man(b1-4)GlcNAc(b1-4)[Fuc(a1-6)]GlcNAc
Outline: as §1

[6] = target: Gal(b1-4)GlcNAc(b1-3)Gal(b1-4)GlcNAc(b1-2)[Gal(b1-4)GlcNAc(b1-3)Gal(b1-4)GlcNAc(b1-6)]Man(a1-6)[Gal(b1-4)GlcNAc(b1-3)Gal(b1-4)GlcNAc(b1-2)Man(a1-3)]Man(b1-4)GlcNAc(b1-4)GlcNAc
Outline: as §1

[7] = target: Gal(b1-4)GlcNAc(b1-3)Gal(b1-4)GlcNAc(b1-2)[Gal(b1-4)GlcNAc(b1-3)Gal(b1-4)GlcNAc(b1-6)]Man(a1-6)[Gal(b1-4)GlcNAc(b1-3)Gal(b1-4)GlcNAc(b1-2)Man(a1-3)]Man(b1-4)GlcNAc(b1-4)[Fuc(a1-6)]GlcNAc
Outline: as §1

[8] = target: Gal(b1-4)GlcNAc(b1-3)Gal(b1-4)GlcNAc(b1-3)Gal(b1-4)GlcNAc
Outline: as §1

[9] = target: Gal(b1-4)GlcNAc(b1-3)Gal(b1-4)GlcNAc(b1-3)Gal(b1-4)GlcNAc(b1-2)Man(a1-3)[Gal(b1-4)GlcNAc(b1-3)Gal(b1-4)GlcNAc(b1-3)Gal(b1-4)GlcNAc(b1-2)Man(a1-6)]Man(b1-4)GlcNAc(b1-4)GlcNAc
Outline: as §1

[10] = target: Gal(b1-4)GlcNAc(b1-3)Gal(b1-4)GlcNAc(b1-3)Gal(b1-4)GlcNAc(b1-2)Man(a1-3)[Gal(b1-4)GlcNAc(b1-3)Gal(b1-4)GlcNAc(b1-3)Gal(b1-4)GlcNAc(b1-2)Man(a1-6)]Man(b1-4)GlcNAc(b1-4)[Fuc(a1-6)]GlcNAc
Outline: as §1

[11] = target: Gal(b1-4)GlcNAc(b1-3)Gal(b1-4)GlcNAc(b1-3)Gal(b1-4)GlcNAc(b1-2)[Gal(b1-4)GlcNAc(b1-3)Gal(b1-4)GlcNAc(b1-3)Gal(b1-4)GlcNAc(b1-6)]Man(a1-6)[Gal(b1-4)GlcNAc(b1-3)Gal(b1-4)GlcNAc(b1-3)Gal(b1-4)GlcNAc(b1-2)Man(a1-3)]Man(b1-4)GlcNAc(b1-4)[Fuc(a1-6)]GlcNAc
Outline: as §1

[12] = target: Gal(b1-4)GlcNAc(b1-3)Gal(b1-4)GlcNAc(b1-3)Gal(b1-4)GlcNAc(b1-3)Gal(b1-4)GlcNAc(b1-2)Man(a1-3)[Gal(b1-4)GlcNAc(b1-3)Gal(b1-4)GlcNAc(b1-3)Gal(b1-4)GlcNAc(b1-3)Gal(b1-4)GlcNAc(b1-2)Man(a1-6)]Man(b1-4)GlcNAc(b1-4)GlcNAc
Outline: as §1

[13] = target: Gal(b1-4)GlcNAc(b1-3)Gal(b1-4)GlcNAc(b1-3)Gal(b1-4)GlcNAc(b1-3)Gal(b1-4)GlcNAc(b1-2)Man(a1-3)[Gal(b1-4)GlcNAc(b1-3)Gal(b1-4)GlcNAc(b1-3)Gal(b1-4)GlcNAc(b1-3)Gal(b1-4)GlcNAc(b1-2)Man(a1-6)]Man(b1-4)GlcNAc(b1-4)[Fuc(a1-6)]GlcNAc
Outline: as §1

[14] = target: Gal(b1-4)GlcNAc(b1-3)Gal(b1-4)GlcNAc(b1-3)Gal(b1-4)GlcNAc(b1-3)Gal(b1-4)GlcNAc(b1-2)[Gal(b1-4)GlcNAc(b1-3)Gal(b1-4)GlcNAc(b1-3)Gal(b1-4)GlcNAc(b1-3)Gal(b1-4)GlcNAc(b1-6)]Man(a1-6)[Gal(b1-4)GlcNAc(b1-3)Gal(b1-4)GlcNAc(b1-3)Gal(b1-4)GlcNAc(b1-3)Gal(b1-4)GlcNAc(b1-2)Man(a1-3)]Man(b1-4)GlcNAc(b1-4)[Fuc(a1-6)]GlcNAc
Outline: as §1

[15] = target: Gal(b1-4)GlcNAc(b1-3)Gal(b1-4)GlcNAc(b1-3)Gal(b1-4)GlcNAc(b1-3)Gal(b1-4)GlcNAc(b1-3)Gal(b1-4)GlcNAc(b1-2)Man(a1-3)[Gal(b1-4)GlcNAc(b1-3)Gal(b1-4)GlcNAc(b1-3)Gal(b1-4)GlcNAc(b1-3)Gal(b1-4)GlcNAc(b1-3)Gal(b1-4)GlcNAc(b1-2)Man(a1-6)]Man(b1-4)GlcNAc(b1-4)GlcNAc
Outline: as §1

[16] = target: Gal(b1-4)GlcNAc(b1-3)Gal(b1-4)GlcNAc(b1-3)Gal(b1-4)GlcNAc(b1-3)Gal(b1-4)GlcNAc(b1-3)Gal(b1-4)GlcNAc(b1-2)Man(a1-3)[Gal(b1-4)GlcNAc(b1-3)Gal(b1-4)GlcNAc(b1-3)Gal(b1-4)GlcNAc(b1-3)Gal(b1-4)GlcNAc(b1-3)Gal(b1-4)GlcNAc(b1-2)Man(a1-6)]Man(b1-4)GlcNAc(b1-4)[Fuc(a1-6)]GlcNAc
Outline: as §1

[17] = target: Gal(b1-4)GlcNAc(b1-3)Gal(b1-4)GlcNAc(b1-3)Gal(b1-4)GlcNAc(b1-3)Gal(b1-4)GlcNAc(b1-3)Gal(b1-4)GlcNAc(b1-2)[Gal(b1-4)GlcNAc(b1-3)Gal(b1-4)GlcNAc(b1-3)Gal(b1-4)GlcNAc(b1-3)Gal(b1-4)GlcNAc(b1-3)Gal(b1-4)GlcNAc(b1-6)]Man(a1-6)[Gal(b1-4)GlcNAc(b1-3)Gal(b1-4)GlcNAc(b1-3)Gal(b1-4)GlcNAc(b1-3)Gal(b1-4)GlcNAc(b1-3)Gal(b1-4)GlcNAc(b1-2)Man(a1-3)]Man(b1-4)GlcNAc(b1-4)[Fuc(a1-6)]GlcNAc
Outline: as §1

[18] = target: Gal(b1-4)GlcNAc(b1-3)Gal(b1-4)GlcNAc(b1-3)Gal(b1-4)GlcNAc(b1-3)Gal(b1-4)GlcNAc(b1-3)Gal(b1-4)GlcNAc(b1-3)Gal(b1-4)GlcNAc(b1-2)Man(a1-3)[Gal(b1-4)GlcNAc(b1-3)Gal(b1-4)GlcNAc(b1-3)Gal(b1-4)GlcNAc(b1-3)Gal(b1-4)GlcNAc(b1-3)Gal(b1-4)GlcNAc(b1-3)Gal(b1-4)GlcNAc(b1-2)Man(a1-6)]Man(b1-4)GlcNAc(b1-4)GlcNAc
Outline: as §1

[19] = target: Gal(b1-4)GlcNAc(b1-3)Gal(b1-4)GlcNAc(b1-3)GalNAc
Outline: as §1

B1: Gal-9-hFc (Mus musculus), O08573-2 (protein)
chain: MALFSAQSPYINPIIPFTGPIQGGLQEGLQVTLQGTTKSFAQRFVVNFQNSFNGNDIAFHFNPRFEEGGYVVCNTKQNGQWGPEERKMQMPFQKGMPFELCFLVQRSEFKVMVNKKFFVQYQHRVPYHLVDTIAVSGCLKLSFITFQTQNFRPAHQAPMAQTTIHMVHSTPGQMFSTPGIPPVVYPTPAYTIPFYTPIPNGLYPSKSIMISGNVLPDATRFHINLRCGGDIAFHLNPRFNENAVVRNTQINNSWGQEERSLLGRMPFSRGQSFSVWIICEGHCFKVAVNGQHMCEYYHRLKNLQDINTLEVAGDIQLTHVQT
[1]
  glycan array binding signal (z-score): 0
[2]
  glycan array binding signal (z-score): -0.221
[3]
  glycan array binding signal (z-score): -0.311
[4]
  glycan array binding signal (z-score): 1.94
[5]
  glycan array binding signal (z-score): -0.126
[6]
  glycan array binding signal (z-score): 3.74
[7]
  glycan array binding signal (z-score): 0.309
[8]
  glycan array binding signal (z-score): -0.389
[9]
  glycan array binding signal (z-score): 0.466
[10]
  glycan array binding signal (z-score): -0.103
[11]
  glycan array binding signal (z-score): 0.363
[12]
  glycan array binding signal (z-score): -0.084
[13]
  glycan array binding signal (z-score): 0.028
[14]
  glycan array binding signal (z-score): 0.165
[15]
  glycan array binding signal (z-score): -0.256
[16]
  glycan array binding signal (z-score): -0.251
[17]
  glycan array binding signal (z-score): 0.046
[18]
  glycan array binding signal (z-score): -0.006
[19]
  glycan array binding signal (z-score): 0.354
